Measured values from paper PMC9967311.
Results are given in words; binding and its absence hold for the method and conditions named. For part of these data: Binding seen in cells or lysates may run through a third protein. Some results given as binding are weak or reduced against the parent protein; the word gives no strength.

Protein sequences, listed by entry. Tags and fused reporters are not part of them. Lines headed by an entry give the natural chain unless they say otherwise; changes in a name come on top.
UniProt P49407: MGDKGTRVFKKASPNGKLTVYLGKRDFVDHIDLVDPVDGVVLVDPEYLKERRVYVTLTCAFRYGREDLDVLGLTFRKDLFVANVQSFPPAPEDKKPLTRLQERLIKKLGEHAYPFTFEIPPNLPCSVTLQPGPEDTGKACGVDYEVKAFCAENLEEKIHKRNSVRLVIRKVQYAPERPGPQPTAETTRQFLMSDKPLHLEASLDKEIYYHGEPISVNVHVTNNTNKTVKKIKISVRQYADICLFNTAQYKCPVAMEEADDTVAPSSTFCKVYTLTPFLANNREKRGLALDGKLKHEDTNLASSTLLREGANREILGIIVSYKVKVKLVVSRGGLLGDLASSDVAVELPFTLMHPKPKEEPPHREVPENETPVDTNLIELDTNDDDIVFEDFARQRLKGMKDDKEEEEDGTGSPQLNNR
UniProt Q9Y5X1: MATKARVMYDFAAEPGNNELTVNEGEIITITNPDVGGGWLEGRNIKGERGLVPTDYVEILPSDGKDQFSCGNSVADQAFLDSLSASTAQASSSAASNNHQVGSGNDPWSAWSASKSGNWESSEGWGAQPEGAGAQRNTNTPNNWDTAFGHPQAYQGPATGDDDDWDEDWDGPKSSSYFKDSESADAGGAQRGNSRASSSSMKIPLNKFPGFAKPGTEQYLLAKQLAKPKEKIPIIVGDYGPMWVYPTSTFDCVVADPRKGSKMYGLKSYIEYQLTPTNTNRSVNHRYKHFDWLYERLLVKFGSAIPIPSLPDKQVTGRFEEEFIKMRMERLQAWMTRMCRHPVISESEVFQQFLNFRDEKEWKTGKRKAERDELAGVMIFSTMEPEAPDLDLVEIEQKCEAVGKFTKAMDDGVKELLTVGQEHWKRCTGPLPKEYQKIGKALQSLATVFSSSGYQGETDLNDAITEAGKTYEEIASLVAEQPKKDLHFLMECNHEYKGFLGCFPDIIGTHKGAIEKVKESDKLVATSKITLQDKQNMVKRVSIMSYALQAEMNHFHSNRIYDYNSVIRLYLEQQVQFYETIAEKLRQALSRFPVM
UniProt Q92783: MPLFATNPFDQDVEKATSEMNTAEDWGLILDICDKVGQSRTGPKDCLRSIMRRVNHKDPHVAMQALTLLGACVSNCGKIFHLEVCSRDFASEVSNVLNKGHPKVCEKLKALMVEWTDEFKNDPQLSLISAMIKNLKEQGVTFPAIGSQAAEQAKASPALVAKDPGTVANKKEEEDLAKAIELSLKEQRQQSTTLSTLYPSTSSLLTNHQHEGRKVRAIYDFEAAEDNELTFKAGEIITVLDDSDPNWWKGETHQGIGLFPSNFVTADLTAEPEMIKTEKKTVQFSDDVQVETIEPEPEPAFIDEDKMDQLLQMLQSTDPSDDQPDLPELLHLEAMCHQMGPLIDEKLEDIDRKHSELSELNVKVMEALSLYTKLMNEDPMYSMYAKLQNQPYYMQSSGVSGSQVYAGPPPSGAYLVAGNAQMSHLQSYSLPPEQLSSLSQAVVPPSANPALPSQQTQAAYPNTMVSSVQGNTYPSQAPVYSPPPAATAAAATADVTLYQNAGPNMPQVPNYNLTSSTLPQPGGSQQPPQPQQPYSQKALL
UniProt Q9Y6W5: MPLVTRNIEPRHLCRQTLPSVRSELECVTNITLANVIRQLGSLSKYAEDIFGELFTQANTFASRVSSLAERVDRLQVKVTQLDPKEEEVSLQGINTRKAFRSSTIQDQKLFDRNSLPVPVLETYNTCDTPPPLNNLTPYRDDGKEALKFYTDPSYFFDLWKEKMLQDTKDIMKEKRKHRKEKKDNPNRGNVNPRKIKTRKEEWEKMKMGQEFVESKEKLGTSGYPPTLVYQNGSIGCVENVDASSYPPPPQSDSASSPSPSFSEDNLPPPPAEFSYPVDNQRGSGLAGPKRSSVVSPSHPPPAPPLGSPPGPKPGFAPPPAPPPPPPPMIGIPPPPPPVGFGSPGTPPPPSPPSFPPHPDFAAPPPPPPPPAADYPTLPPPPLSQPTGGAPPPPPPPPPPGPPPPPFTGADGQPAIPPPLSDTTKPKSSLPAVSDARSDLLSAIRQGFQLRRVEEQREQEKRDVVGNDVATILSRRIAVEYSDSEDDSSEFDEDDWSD
UniProt Q9Y6K9: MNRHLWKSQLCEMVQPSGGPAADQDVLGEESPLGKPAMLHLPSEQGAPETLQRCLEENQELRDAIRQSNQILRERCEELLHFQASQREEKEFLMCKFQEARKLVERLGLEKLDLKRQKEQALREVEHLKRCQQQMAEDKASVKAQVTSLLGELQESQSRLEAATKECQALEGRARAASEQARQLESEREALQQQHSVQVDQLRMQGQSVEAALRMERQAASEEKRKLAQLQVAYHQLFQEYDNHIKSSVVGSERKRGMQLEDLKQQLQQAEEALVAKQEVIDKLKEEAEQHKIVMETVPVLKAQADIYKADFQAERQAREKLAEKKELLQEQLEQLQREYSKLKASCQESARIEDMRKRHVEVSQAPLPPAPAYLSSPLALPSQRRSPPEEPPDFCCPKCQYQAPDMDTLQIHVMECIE

How the values were obtained:
GST-tagged βarr1 [1] = target: GST-tagged βarr1 (UniProt P49407); assay: pull-down; GST-βarr1 or GST (~1 µM) immobilised on glutathione resin, incubated with purified His-SNX9 (0.3 µM) or His-WAVE2 (0.5 µM) ~18 h at 4 °C; 20 mM Tris-HCl pH 7.5, 150 mM NaCl, 0.1% Triton X-100; immunoblotting; both purified
His-tagged βarr1 = His-tagged βarr1 (UniProt P49407); assay: pull-down; His-βarr1 immobilised on metal affinity (cobalt) resin, incubated with cleared HeLa cell lysate (400-600 µg) 2 h at 4 °C; 20 mM Tris-HCl pH 7.5, 150 mM NaCl, 0.1% Triton X-100; eluted with 200 mM imidazole; immunoblotting; only the target purified
GST-tagged βarr1 [2] = target: GST-tagged βarr1 (UniProt P49407); assay: pull-down; GST-βarr1 or GST (~1 µM) immobilised on glutathione resin, incubated with HeLa cell lysate (400-600 µg) ~18 h at 4 °C; 20 mM Tris-HCl pH 7.5, 150 mM NaCl, 0.1% Triton X-100; immunoblotting; only the target purified
FLAG-tagged SNX9 = FLAG-tagged SNX9 (UniProt Q9Y5X1); assay: co-IP; HEK293 cells transfected with FLAG-SNX9 and wild-type βarr1 or βarr1-R169E; lysis buffer 2 (20 mM Tris-HCl pH 7.4, 150 mM NaCl, 0.1% Triton X-100); M2 anti-FLAG antibody overnight at 4 °C, protein G agarose; immunoblotting
His-tagged SNX9 = His-tagged SNX9 (UniProt Q9Y5X1); assay: pull-down; His-SNX9 (0.45 µM) immobilised on metal affinity resin, incubated with purified untagged wild-type βarr1 or βarr1-R169E (0.15 µM by the legend; equimolar 1 µM by the methods) 2 h at 4 °C; immunoblotting; both purified
FLAG-STAM1 = FLAG-STAM1 (UniProt Q92783); assay: co-IP; COS-1 cells transfected with FLAG-STAM1 and βarr1-APEX2; cleared lysates in IP buffer (50 mM Tris-HCl pH 7.5, 150 mM NaCl, 0.5% NP-40); M2 anti-FLAG antibody overnight at 4 °C, protein G agarose; immunoblotting

**Q.** “His-tagged WAVE2 (from UniProt Q9Y6W5 1-498)” was tested. Which binding (GST-tagged βarr1 [1]) did it give?
**A.** binds

**Q.** With NEMO (from UniProt Q9Y6K9 1-419) as the substance, how does the binding (His-tagged βarr1) read?
**A.** no binding

**Q.** Which binding (GST-tagged βarr1 [2]) does the source give for WAVE2 (from UniProt Q9Y6W5 1-498) here?
**A.** binds

**Q.** How did the binding (FLAG-tagged SNX9) turn out when “preactivated βarr1 (R169E) (from UniProt P49407 1-418)” was run?
**A.** binds

**Q.** For “untagged βarr1-R169E (from UniProt P49407 1-418)”, which binding (His-tagged SNX9) is on record?
**A.** binds

**Q.** For “β-arrestin1-APEX2 (from UniProt P49407 1-418)”, which binding (FLAG-STAM1) is on record?
**A.** binds
